# Source: publication PMC7819943, “Rice protein-binding microarrays: a tool to detect cis-acting elements near promoter regions in rice”
# This is one part of the list.
# Molecular target: T1, OsWOX13 (Oryza sativa, UniProt Q5QMM3 1-267)
# T1 sequence: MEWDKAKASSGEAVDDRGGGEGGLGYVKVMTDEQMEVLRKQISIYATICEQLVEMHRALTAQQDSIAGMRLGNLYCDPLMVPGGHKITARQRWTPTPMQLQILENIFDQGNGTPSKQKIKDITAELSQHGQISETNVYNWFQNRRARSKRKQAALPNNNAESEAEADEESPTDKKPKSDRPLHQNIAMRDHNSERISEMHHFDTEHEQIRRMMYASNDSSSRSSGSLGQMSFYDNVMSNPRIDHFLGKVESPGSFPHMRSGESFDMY
# Assay: protein-binding microarray (RPBM); PBS, 2% BSA, 51.3 ng/ul salmon testes DNA, 50 uM zinc acetate, 200 nM TF, 25 C, 1 h; high values mean tight binding
# Conditions: protein: recombinant; tags: N-terminal polyhistidine and DsRed monomer fusion (pET32a); label: CyDye5-dUTP incorporated in the synthesized complementary strand; 3' TTTTT single-stranded linker to array surface; dsDNA, one strand shown
# Outline: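 Transcription factors, each fused N-terminally to a polyhistidine tag and DsRed, were expressed in E. coli BL21-CodonPlus and purified on Ni–NTA. A custom Agilent array was made double-stranded by primer extension with Cy5-dUTP and blocked with 2% BSA. It was incubated with 200 nM protein in PBS, 2% BSA, salmon testes DNA and 50 µM zinc acetate at 25 °C for 1 h, then washed. The binding signal is per-feature fluorescence intensity (arbitrary units) read on an Axon 4000B scanner.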
row,Sequence,binding signal
1,GTCATCATTGATTGATATGATTTTGTATGTGTGAGCAATGCGGAGTCACCTAGTGCAG,59400 fluorescence intensity (a.u.)
2,TCAATGATTTTGTGCAACATCCCAAATAAACTAGAACTAACGGAGTCACCTAGTGCAG,5420 fluorescence intensity (a.u.)
3,CTAATTATCGTAATCGCTAATTTAAATCCATGCATTTGGGCGGAGTCACCTAGTGCAG,16700 fluorescence intensity (a.u.)
4,TATGATTGATTGGAGGGATCAATTAATTACTCATTCTCCACGGAGTCACCTAGTGCAG,64700 fluorescence intensity (a.u.)
5,GGCTGAATTGCAAATCATATGCGTTTGAGAGGATTAGGTACGGAGTCACCTAGTGCAG,14200 fluorescence intensity (a.u.)
6,CTGTAAATTTCGTTGACGGCCGTCGCCCGAGAGCGAACGGCGGAGTCACCTAGTGCAG,5000 fluorescence intensity (a.u.)
7,GTCAATAGCAATCAAGACGGACGGAAAACAATGTGGACTTCGGAGTCACCTAGTGCAG,10800 fluorescence intensity (a.u.)
8,AAGTAATTGGAAGATGTATTTTAATAAGAGTTCAAATAGACGGAGTCACCTAGTGCAG,16500 fluorescence intensity (a.u.)
9,TCATTTGACTCACTAATTTCCGAATTGGTACTGTCTAACACGGAGTCACCTAGTGCAG,5610 fluorescence intensity (a.u.)
10,TTGCCTTTATTTCTCGTTGATTGCAGGATCAAATCAACTGCGGAGTCACCTAGTGCAG,18100 fluorescence intensity (a.u.)
11,GAAAACAGAAACAACTTAATTTGTTGCTCTACCAATTGTTCGGAGTCACCTAGTGCAG,11600 fluorescence intensity (a.u.)
12,CTTGATGGTAATCATGGTATCTTGTGATGGTACCTGTCCACGGAGTCACCTAGTGCAG,22400 fluorescence intensity (a.u.)
13,TATTACTAAGTGATTGTTTACAAGTTCGAGCGGACGGGCACGGAGTCACCTAGTGCAG,3800 fluorescence intensity (a.u.)
14,AAGTAGCGTTTAATGCATAATTAATTAAGTACTCCCTCCACGGAGTCACCTAGTGCAG,4200 fluorescence intensity (a.u.)
15,AATTCGCATGATTGTTTTCGTTTTGTTGGTCAGTGAATGACGGAGTCACCTAGTGCAG,15800 fluorescence intensity (a.u.)
16,CTGATGATTGGTCAGCAGAGAAGACAGGTGGGATATCGAGCGGAGTCACCTAGTGCAG,52900 fluorescence intensity (a.u.)
17,CAATAATTTAGGGAGTCGTCCTATCCGGTTTTACAGTTAACGGAGTCACCTAGTGCAG,8720 fluorescence intensity (a.u.)
18,TCAAGCTGCTAATCAATTGATATCAACTATATTATGGAAACGGAGTCACCTAGTGCAG,14600 fluorescence intensity (a.u.)
19,AATGATCAATATTGGCACGATGACTGTGTTTATTTCCTTTCGGAGTCACCTAGTGCAG,3770 fluorescence intensity (a.u.)
20,ATTATTTAAATTATTTGAATAAGACGAATGATCAAACACGCGGAGTCACCTAGTGCAG,16600 fluorescence intensity (a.u.)
21,CTCAGATACCTGATTTAAAACAGAGTAAACCAAGTGGATGCGGAGTCACCTAGTGCAG,3610 fluorescence intensity (a.u.)

row,Sequence,binding signal
1,AGAAGGTAAATTGATTCGGTTTTCATAGTTGAAGGAACCTCGGAGTCACCTAGTGCAG,16500 fluorescence intensity (a.u.)
2,TTTAAAATTGAAGTTATCACAAAACTATATCTTTTAGAGTCGGAGTCACCTAGTGCAG,10800 fluorescence intensity (a.u.)
3,CTGGATCAGATTAGACGAGCAGATTAGATTACGTGGAGTCCGGAGTCACCTAGTGCAG,13300 fluorescence intensity (a.u.)
4,CGCCGAGGGGAGGGGAGGGGAGGTTGCCATTGTTGTCCATCGGAGTCACCTAGTGCAG,4420 fluorescence intensity (a.u.)
5,ATGAACAATGACAGATTATGATTTATGCAACGAAAACCTGCGGAGTCACCTAGTGCAG,13800 fluorescence intensity (a.u.)
6,ATGCTGTGTTTATTGGATTGATGTGATATAATGTTCATTTCGGAGTCACCTAGTGCAG,6110 fluorescence intensity (a.u.)
7,ATGAGACATGATCATCAATTAATACATGTGCTGATCATCTCGGAGTCACCTAGTGCAG,27900 fluorescence intensity (a.u.)
8,CTATTTAAATGACATATAACCAATGAGAAAACATCCCCTCCGGAGTCACCTAGTGCAG,3870 fluorescence intensity (a.u.)
9,TTCATTTATAGCCAATCTAATAGCCAATTCATACCATAGTCGGAGTCACCTAGTGCAG,8130 fluorescence intensity (a.u.)
10,AGAAGATTAAATTACCAATCATTTCAGAATCATGACGCATCGGAGTCACCTAGTGCAG,45700 fluorescence intensity (a.u.)
11,TAAATTAACTAGTTCATGAGGACTACAGCAAGTAGGTAGCCGGAGTCACCTAGTGCAG,5400 fluorescence intensity (a.u.)
12,ATTTAAATTAAATCTTAGGAATATAAATTATGAATAACTCCGGAGTCACCTAGTGCAG,14900 fluorescence intensity (a.u.)
13,CCACGTGTAATTACCGATCTGCCCCTCCCAGCCCACGTCACGGAGTCACCTAGTGCAG,11000 fluorescence intensity (a.u.)
14,ATAAACAAATCTGAAGGAATAATTGCATACAATGTCTAGTCGGAGTCACCTAGTGCAG,4370 fluorescence intensity (a.u.)
15,TCAAAATTGGAAGTTTGATTGAAATTGGAACGATGTGACGCGGAGTCACCTAGTGCAG,61400 fluorescence intensity (a.u.)
16,AGTTTTAATTACATTTAGAAGTTAGTGAAACTCTTACTAGCGGAGTCACCTAGTGCAG,14000 fluorescence intensity (a.u.)
17,AGTATGTACCTGATTAACAGAAGAACTAACATATTCACTTCGGAGTCACCTAGTGCAG,3850 fluorescence intensity (a.u.)
18,ATCATCATATAATGGGTAATTGACACACTGAGAGGAAACGCGGAGTCACCTAGTGCAG,28500 fluorescence intensity (a.u.)
19,TACTTACCATTGATTTGCAACAAAACGTGTTAGAGCTGGACGGAGTCACCTAGTGCAG,8040 fluorescence intensity (a.u.)
20,TATGAATGAGCTATTAGATTAGCTATAAATGTTTTGGAGCCGGAGTCACCTAGTGCAG,7890 fluorescence intensity (a.u.)
21,ACTGATTGCCGATCAGCCAGGCCCGGTGTTTACATCCAGGCGGAGTCACCTAGTGCAG,11300 fluorescence intensity (a.u.)
